In PubChem BioAssay (Tox21):
“And” between values parts separate entries of the source, which are not always exact repeats. Equal entries are not always repeated. This list was built around the results that the source calls inconclusive (neither active nor inactive); the mix of calls is not that of the screen. For some of these results: Potencies of inconclusive entries are doubtful fits and often do not repeat. The source made the active and inactive calls. Unless noted, calls come from the whole dose curve; as a rule, active = well fitted curve in the direction sought with a large enough effect in the repeat runs; inconclusive = weak or mixed curves; inactive = no such curve, though single readings can be large; an effect the other way counts as inactive or inconclusive.

Columns and labels:
[1] = target: Estrogen receptor beta (Homo sapiens) (UniProt Q92731); assay: qHTS assay to identify small molecule agonists of the estrogen receptor beta (ER-beta) signaling pathway (AID 1259377; active = well fitted activation curve with a large enough effect in the signal ratio in the repeat runs, not every such curve was filed as active; inconclusive = weak or mixed curves, or effect the other way; the % refers to the signal ratio; for activation: % is set by controls: 0 for no effect and ±100 for the full control effect); conditions: ER-beta-UAS-bla HEK293T, beta-lactamase FRET ratio, 16 h; activation: at 92.4 µM (top of the series) unless noted
UniProt Q92731, sequence (Q92731 whole entry, looked up): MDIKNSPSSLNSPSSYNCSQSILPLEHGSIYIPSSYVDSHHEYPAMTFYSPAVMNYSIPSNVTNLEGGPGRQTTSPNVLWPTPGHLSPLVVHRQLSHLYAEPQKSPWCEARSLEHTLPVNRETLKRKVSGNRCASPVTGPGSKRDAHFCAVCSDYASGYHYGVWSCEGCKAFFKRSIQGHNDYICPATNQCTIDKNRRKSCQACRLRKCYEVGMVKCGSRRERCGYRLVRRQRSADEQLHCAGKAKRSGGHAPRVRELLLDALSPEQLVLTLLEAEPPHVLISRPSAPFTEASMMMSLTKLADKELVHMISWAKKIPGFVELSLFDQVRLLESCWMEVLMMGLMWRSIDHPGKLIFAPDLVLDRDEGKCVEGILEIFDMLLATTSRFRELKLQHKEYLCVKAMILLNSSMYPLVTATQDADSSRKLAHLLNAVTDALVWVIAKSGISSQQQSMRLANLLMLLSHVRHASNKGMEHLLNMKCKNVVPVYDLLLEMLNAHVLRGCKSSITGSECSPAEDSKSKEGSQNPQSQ
Method in brief: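 qHTS in ER-beta-UAS-bla HEK293T cells: 6 hr settling, then 16 hr compound at 37C, then LiveBLAzer substrate 2 h at RT before fluorescence reading.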

[2] = target: Estrogen receptor beta (Homo sapiens) (UniProt Q92731); assay: qHTS assay to identify small molecule antagonists of the estrogen receptor beta (ER-beta) signaling pathway (AID 1259378; active = well fitted inhibition curve with a large enough effect in the signal ratio in the repeat runs, not every such curve was filed as active; inconclusive = weak or mixed curves, or effect the other way; inactive = no such curve, though single readings can be large or run the other way; the % refers to the signal ratio; for activity, negative = inhibition: % is set by controls: 0 for no effect and ±100 for the full control effect); conditions: ER-beta-UAS-bla HEK293T, beta-lactamase FRET ratio, 16 h; activity, negative = inhibition: at 92.4 µM (top of the series) unless noted
Method in brief: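 ER-beta-UAS-bla HEK293T cells in 2% charcoal-stripped FBS medium treated with compound plus 1nM final 17-beta-estradiol for 16 hr at 37C. Beta-lactamase reporter read by FRET substrate fluorescence after 2 hours at room temperature.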

[3] = qHTS assay to identify small molecule antagonists of the estrogen receptor beta (ER-beta) signaling pathway - cell viability counter screen (AID 1259382); note: nearly all actives have a fitted effect of over 55% in size
Method in brief: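 Cells: ER-beta-UAS-bla HEK293T, 2,000/well, 2% CS-FBS, 6 hr settle. Cpd + E2 (1nM final), 16 hr, 37C/5% CO2. Bla FRET substrate 2 hr RT, then CellTiter-Glo 30 min RT, luminescence.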

[4] = qHTS assay to identify small molecule agonists of the estrogen receptor beta (ER-beta) signaling pathway - cell viability counter screen (AID 1259380); note: nearly all actives have a fitted effect of over 30% in size
Method in brief: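 HEK293T ER-beta-UAS-bla; 2% CS-FBS; 6 hr pre-plate, 16 hr cpd at 37C/5% CO2; LiveBLAzer read first, then CellTiter-Glo 30 min RT, luminescence.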

[5] = target: Thyrotropin receptor (Homo sapiens) (UniProt P16473); assay: qHTS assay to identify small molecule antagonists of the thyroid stimulating hormone receptor (TSHR) signaling pathway (AID 1259385; calls by dose curve; note: nearly all actives have a fitted effect of over 20% in size); conditions: TSHR-HEK293 cAMP HTRF, TSH-stimulated antagonist mode; activity change, negative = inhibition: at 92.4 µM (top of the series) unless noted
UniProt P16473, sequence (P16473 whole entry, looked up): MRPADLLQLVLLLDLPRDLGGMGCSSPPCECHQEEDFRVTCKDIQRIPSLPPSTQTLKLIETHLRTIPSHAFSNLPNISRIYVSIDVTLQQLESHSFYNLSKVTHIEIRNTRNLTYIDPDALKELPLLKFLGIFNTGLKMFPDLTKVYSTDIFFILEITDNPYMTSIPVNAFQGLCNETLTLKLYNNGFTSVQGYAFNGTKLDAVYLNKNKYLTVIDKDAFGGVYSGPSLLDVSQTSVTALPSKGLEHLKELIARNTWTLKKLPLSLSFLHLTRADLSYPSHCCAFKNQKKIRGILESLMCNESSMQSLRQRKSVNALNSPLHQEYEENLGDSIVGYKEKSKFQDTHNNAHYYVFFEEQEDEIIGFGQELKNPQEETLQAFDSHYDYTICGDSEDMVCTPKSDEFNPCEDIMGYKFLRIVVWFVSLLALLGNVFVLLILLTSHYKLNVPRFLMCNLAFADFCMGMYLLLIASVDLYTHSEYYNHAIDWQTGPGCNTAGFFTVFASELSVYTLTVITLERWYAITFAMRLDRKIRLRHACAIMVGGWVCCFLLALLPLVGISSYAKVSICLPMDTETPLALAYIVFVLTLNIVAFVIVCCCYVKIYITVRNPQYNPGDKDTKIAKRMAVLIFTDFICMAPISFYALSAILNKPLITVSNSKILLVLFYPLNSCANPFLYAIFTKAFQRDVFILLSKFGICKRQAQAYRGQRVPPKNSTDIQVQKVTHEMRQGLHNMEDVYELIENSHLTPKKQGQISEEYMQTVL
Method in brief: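 TSHR-HEK293 cells (800/well) plated 18 h, then compounds with Ro20-1724 and TSH at 1.5 ng/mL final, 30 min at room temperature. cAMP quantified by HTRF (cAMP-d2/anti-cAMP-cryptate, 1 h); 15 concentrations in triplicate.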

[6] = qHTS assay to identify small molecule agonists of the estrogen receptor alpha (ER-alpha) signaling pathway in the presence of an antagonist - cell viability counter screen (AID 1259386);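 note: cells exposed to compounds for 22 h at 37 °C before the viability read; nearly all actives have a fitted effect of over 30% in size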
Method in brief: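 VM7Luc4E2, stripped-serum pre-culture 5 d; 24hr plating; +ICI-182,780 10.0nM final; cpds 15 conc, 22hr, 37C/5% CO2; CellTiter-Fluor added at 21hr, fluorescence 1hr later.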

[7] = target: Progesterone receptor (Homo sapiens) (UniProt P06401); assay: qHTS assay to identify small molecule agonists of the progesterone receptor (PR) signaling pathway (AID 1346784; calls by dose curve; note: nearly all actives have a fitted effect of over 30% in size; for activation: % is set by controls: 0 for no effect and ±100 for the full control effect); conditions: PR-UAS-bla HEK293T, beta-lactamase FRET ratio, 16 h; activation: at 92.4 µM (top of the series) unless noted
UniProt P06401, sequence (P06401 whole entry, looked up): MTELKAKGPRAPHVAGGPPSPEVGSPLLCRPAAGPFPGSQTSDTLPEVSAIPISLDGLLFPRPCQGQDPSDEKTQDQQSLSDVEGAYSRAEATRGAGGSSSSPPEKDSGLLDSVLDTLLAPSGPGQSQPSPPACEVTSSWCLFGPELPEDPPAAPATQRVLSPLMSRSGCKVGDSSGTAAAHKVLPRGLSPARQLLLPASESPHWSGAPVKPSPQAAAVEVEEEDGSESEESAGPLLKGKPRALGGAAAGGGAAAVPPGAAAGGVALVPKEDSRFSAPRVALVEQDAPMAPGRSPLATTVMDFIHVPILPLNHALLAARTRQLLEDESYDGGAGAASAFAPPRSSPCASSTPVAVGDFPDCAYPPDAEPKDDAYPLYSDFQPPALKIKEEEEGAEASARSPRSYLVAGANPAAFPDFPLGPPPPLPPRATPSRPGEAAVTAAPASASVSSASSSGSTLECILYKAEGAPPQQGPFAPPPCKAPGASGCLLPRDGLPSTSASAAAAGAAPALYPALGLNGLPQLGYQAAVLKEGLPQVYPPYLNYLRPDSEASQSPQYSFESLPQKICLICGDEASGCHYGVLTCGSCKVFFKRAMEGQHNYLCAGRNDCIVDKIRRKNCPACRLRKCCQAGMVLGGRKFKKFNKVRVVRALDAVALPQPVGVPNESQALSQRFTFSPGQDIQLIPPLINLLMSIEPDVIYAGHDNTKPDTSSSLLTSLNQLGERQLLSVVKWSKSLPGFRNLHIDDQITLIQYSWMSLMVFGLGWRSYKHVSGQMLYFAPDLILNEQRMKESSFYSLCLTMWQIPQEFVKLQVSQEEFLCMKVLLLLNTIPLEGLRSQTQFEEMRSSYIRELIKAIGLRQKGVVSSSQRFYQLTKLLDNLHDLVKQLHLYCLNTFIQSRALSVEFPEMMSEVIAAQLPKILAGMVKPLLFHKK
Method in brief: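 Fluorescence from LiveBLAzer B/G FRET substrate cleavage (2 hr, RT) reported PR activation in PR-UAS-bla HEK 293T cells treated 16 hr at 37C/5% CO2 with compounds; medium contained 2% charcoal-stripped FBS.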

[8] = target: Progesterone receptor (Homo sapiens) (UniProt P06401); assay: qHTS assay to identify small molecule antagonists of the progesterone receptor (PR) signaling pathway (AID 1346795; active = well fitted inhibition curve with a large enough effect in the signal ratio in the repeat runs, not every such curve was filed as active; inconclusive = weak or mixed curves; the % refers to the signal ratio); conditions: PR-UAS-bla HEK293T, beta-lactamase FRET ratio, 16 h; activity change, negative = inhibition: at 92.4 µM (top of the series) unless noted
Method in brief: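 Fluorescence intensity measured 2 hr after adding beta-lactamase FRET substrate to PR-UAS-bla HEK293T cells that had been co-treated 16 hr with compound and 1 nM R5020 (final concentration) in 2% charcoal-stripped FBS.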

[9] = qHTS assay to identify small molecule agonists of the progesterone receptor (PR) signaling pathway - cell viability counter screen (AID 1346799; calls by dose curve; note: nearly all actives have a fitted effect of over 45% in size)
Method in brief: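 In parallel with the beta-lactamase readout, cytotoxicity toward PR-UAS-bla HEK293T cells was measured by CellTiter-Glo luminescence following 16 hr compound incubation in 2% charcoal-stripped FBS medium.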

[10] = qHTS assay to identify small molecule agonists of the TGF-beta/Smad signaling pathway (AID 1346859; active = well fitted activation curve with a large enough effect in the signal ratio in the repeat runs, not every such curve was filed as active; inconclusive = weak or mixed curves; the % refers to the signal ratio); conditions: SBE-bla HEK293T, TGF-beta/Smad beta-lactamase reporter, 5 h; activation: at 76.8 µM (top of the series) unless noted
Method in brief: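 After overnight seeding, SBE-bla HEK 293T cells are dosed with compounds in DMSO and kept 5 hr at 37 C, 5% CO2. LiveBLAzer-type FRET substrate is then applied for 2 hr at room temperature.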

[11] = target: Thyrotropin-releasing hormone receptor (Homo sapiens) (UniProt P34981); assay: qHTS assay to identify small molecule antagonists of the thyrotropin-releasing hormone receptor (TRHR) signaling pathway (AID 1346877; active = well fitted inhibition curve with a large enough effect in the repeat runs, not every such curve was filed as active; inconclusive = weak or mixed curves; for activity, negative = inhibition: % is set by controls: 0 for no effect and ±100 for the full control effect)
UniProt P34981, sequence (P34981 whole entry, looked up): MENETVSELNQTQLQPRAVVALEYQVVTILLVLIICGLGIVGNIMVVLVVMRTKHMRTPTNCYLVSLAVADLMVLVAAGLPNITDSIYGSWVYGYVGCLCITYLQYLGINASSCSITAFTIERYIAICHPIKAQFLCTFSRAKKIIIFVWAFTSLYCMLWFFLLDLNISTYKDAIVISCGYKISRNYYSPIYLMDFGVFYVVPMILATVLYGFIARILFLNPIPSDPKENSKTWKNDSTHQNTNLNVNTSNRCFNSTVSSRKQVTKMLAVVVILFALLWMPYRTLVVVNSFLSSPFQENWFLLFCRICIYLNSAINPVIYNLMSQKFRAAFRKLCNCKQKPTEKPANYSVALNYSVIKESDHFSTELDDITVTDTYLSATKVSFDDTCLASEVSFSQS
Method in brief: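 Intracellular calcium fluorescence, read kinetically every second over 3 min, reports TRH-evoked signalling in HEK293 cells carrying TRHR. Test compounds were added 5 min ahead of a 1 nM TRH challenge.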

[12] = qHTS assay to identify small molecule antagonists of the TGF-beta/Smad signaling pathway (AID 1346924; active = well fitted inhibition curve with a large enough effect in the signal ratio in the repeat runs, not every such curve was filed as active; inconclusive = weak or mixed curves; the % refers to the signal ratio); conditions: SBE-bla HEK293T, TGF-beta/Smad reporter, beta-lactamase ratio; activity, negative = inhibition: at 76.8 µM (top of the series) unless noted
Method in brief: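 SBE-bla HEK 293T cells were plated overnight, then received compound in DMSO plus TGF-beta1 (added as a 0.25 ng/mL solution) and were incubated 5 h at 37 C. Beta-lactamase reporter activity was read after 2 h at room temperature with LiveBLAzer B/G FRET substrate (ex 405, em 460/530 nm).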

[13] = qHTS assay to identify small molecule agonists of the androgen receptor (AR) signaling pathway in the presence of an antagonist - cell viability counter screen (AID 1259379); note: nearly all actives have a fitted effect of over 25% in size
Method in brief: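 Cells: MDA-kb2 (MMTV-luc, AR and GR elements), 3,000/well, 5 hr settle. Added: nilutamide 3.0uM final, then compounds (15 conc.). Incubation: 16 hr, 37C, no CO2. Read-out: CellTiter-Fluor, 1 hr, fluorescence.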

[14] = qHTS assay to identify small molecule antagonists of the progesterone receptor (PR) signaling pathway - cell viability counter screen (AID 1346798); note: nearly all actives have a fitted effect of over 50% in size
Method in brief: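 CellTiter-Glo luminescence; PR-UAS-bla HEK293T, 3,000 cells/well; compound + R5020, 16 hr, 37C/5% CO2; 30 min RT before read.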

[15] = qHTS assay to identify small molecule antagonists of the TGF-beta/Smad signaling pathway - cell viability counter screen (AID 1346824); note: nearly all actives have a fitted effect of over 50% in size
Method in brief: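 SBE-bla HEK 293T cells, incubated overnight, then compound plus 0.25 ng/mL TGF-beta1 (stock added) for 5 hr at 37 C. Viability was read in the same wells by CellTiter-Glo luminescence after 30 min at room temperature.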

[16] = target: Estrogen receptor (Homo sapiens) (UniProt P03372); assay: qHTS assay to identify small molecule agonists of the estrogen receptor alpha (ER-alpha) signaling pathway in the presence of an antagonist (AID 1259383; calls by dose curve; note: nearly all actives have a fitted effect of over 15% in size)
UniProt P03372, sequence (P03372 whole entry, looked up): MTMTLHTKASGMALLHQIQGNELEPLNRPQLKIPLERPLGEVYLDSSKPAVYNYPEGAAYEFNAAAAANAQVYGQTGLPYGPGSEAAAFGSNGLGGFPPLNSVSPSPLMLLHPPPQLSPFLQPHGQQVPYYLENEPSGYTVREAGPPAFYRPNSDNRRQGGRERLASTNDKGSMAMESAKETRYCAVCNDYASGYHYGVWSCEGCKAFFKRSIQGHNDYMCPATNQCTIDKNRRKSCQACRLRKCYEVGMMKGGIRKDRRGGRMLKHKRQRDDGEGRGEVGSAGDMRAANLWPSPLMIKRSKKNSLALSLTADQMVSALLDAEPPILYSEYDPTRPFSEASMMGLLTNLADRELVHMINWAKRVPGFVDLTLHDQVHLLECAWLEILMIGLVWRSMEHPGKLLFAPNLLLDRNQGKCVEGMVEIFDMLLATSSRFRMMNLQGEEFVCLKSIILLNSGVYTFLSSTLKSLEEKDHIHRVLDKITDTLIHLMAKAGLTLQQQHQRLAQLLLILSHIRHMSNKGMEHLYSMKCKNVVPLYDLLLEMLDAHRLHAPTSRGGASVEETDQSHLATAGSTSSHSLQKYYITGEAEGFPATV
Method in brief: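 VM7Luc4E2, endog. ER-alpha + 4×ERE-luc; charcoal-stripped FBS, phenol red-free, 5 d; 24hr plating; +10.0nM ICI-182,780 (final); cpds 15 conc, 22hr, 37C/5% CO2; ONE-Glo luminescence.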

[17] = qHTS assay to identify small molecule agonists or antagonists of the thyroid stimulating hormone receptor (TSHR) signaling pathway - wild type cell line counter screen (AID 1259384; calls by dose curve); conditions: HEK293 wild type, cAMP HTRF counter-screen; cAMP activity change: at 92.4 µM (top of the series), active compounds read high unless noted
Method in brief: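 Wild-type Hek293 cells, 800/well, 18 h at 37C, then compound with Ro20-1724 for 30 min RT. cAMP by HTRF (cAMP-d2/anti-cAMP cryptate), 1 h RT, fluorescence read. 15 concentrations, triplicates.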

[18] = target: Thyrotropin-releasing hormone receptor (Homo sapiens) (UniProt P34981); assay: qHTS assay to identify small molecule agonists of the thyrotropin-releasing hormone receptor (TRHR) signaling pathway (AID 1346891; calls by dose curve)
Method in brief: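 Compounds were tested as agonists at 15 concentrations, in triplicate, on TRHR-Hek293 cells; calcium-sensitive dye fluorescence was recorded for 3 min following addition.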
Potency is the fitted concentration of half-maximal effect; tags give direction and shape of the fitted curve or compound fluorescence and quenching.

CCCCN(CCCC)CCC(O)c1cc2c(Cl)cc(Cl)cc2c2cc(C(F)(F)F)ccc12 (configuration not stated)
inconclusive: Potency [2] 8.41 µM [inhibitor, full curve] | Potency [3] 10.6 µM [cytotoxic, full curve]
inactive: Potency [1]

CCCCC(CC)COC(=O)c1ccccc1C(=O)O (configuration not stated)
inconclusive: Potency [1] 78.3 µM | Potency [2] 62.2 µM | Potency [4] 62.2 µM [cytotoxic] | Potency [3] 60.4 µM [cytotoxic] | Potency [5] 0.221 µM [falling, single point] | Potency [7] 31.2 µM | Potency [8] 62.2 µM | Potency [9] 15.6 µM [cytotoxic, full curve, poor fit] | Potency [10] 55.9 µM | Potency [11] 21.7 µM [inhibitor, partial curve, poor fit] | Potency [12] 49.9 µM [fluorescent, partial curve, poor fit]
inactive: Potency [6]

O=C(Nc1cccc(Cl)c1)OCC#CCCl
active: Potency [13] 54.5 µM | Potency [6] 61.1 µM | Potency [14] 54.5 µM
inactive: Potency [11]
inconclusive: Potency [1] 30.6 µM [rising, partial curve] | Potency [2] 15.4 µM | Potency [3] 68.6 µM [cytotoxic, single point] | Potency [7] 68.6 µM [cytotoxic, single point] | Potency [8] 77 µM [falling, single point] | activity, negative = inhibition [12] 2.33%

Oc1ccc(-c2ccc(O)cc2)cc1
active: Potency [1] 2.75 µM
inconclusive: activity, negative = inhibition [2] -49% | Potency [4] 48.9 µM [cytotoxic, partial curve] | Potency [15] 31.1 µM [rising, partial curve, poor fit] | activity, negative = inhibition [12] 36.1%

CCC(C)c1cc([N+](=O)[O-])cc([N+](=O)[O-])c1OC(=O)OC(C)C (configuration not stated)
inconclusive: Potency [1] 27.3 µM [rising, partial curve] | Potency [2] 12.2 µM [rising, full curve] | Potency [4] 2.73 µM [cytotoxic, single point] | activation [7] 5.51% | activity change, negative = inhibition [8] -53.9% | Potency [9] 8.63 µM [rising, partial curve, poor fit] | Potency [10] 19.5 µM [rising, full curve] | Potency [12] 21.9 µM [rising, partial curve]

Brc1cc(Br)c(Oc2cc(Br)c(Br)cc2Br)cc1Br
inconclusive: Potency [1] 29.9 µM [fluorescent, single point] | Potency [3] 33.5 µM [cytotoxic, partial curve] | Potency [9] 29.9 µM [cytotoxic, partial curve, poor fit]
active: Potency [4] 29.9 µM
inactive: Potency [2]

O=C(O)Cc1ccccc1Nc1c(Cl)cccc1Cl
inconclusive: activity, negative = inhibition [2] -45.8% | Potency [4] 13.3 µM [cytotoxic, partial curve] | Potency [3] 13.7 µM [cytotoxic, full curve] and 13.3 µM [cytotoxic, partial curve] | Potency [9] 27.3 µM [cytotoxic, full curve]
inactive: Potency [1] | Potency [14]

Nc1ccc([N+](=O)[O-])cc1O
inconclusive: Potency [1] 13.7 µM [fluorescent, full curve] | Potency [2] 15.4 µM [inhibitor, full curve] | Potency [4] 27.3 µM [cytotoxic, single point] | Potency [16] 61.1 µM [activator, partial curve] | Potency [17] 17.2 µM [falling, partial curve] | activity change, negative = inhibition [5] -0.187% | activation [7] -2.2% | Potency [8] 38.6 µM [falling, partial curve] | Potency [14] 13.7 µM [rising, partial curve, poor fit] | activity, negative = inhibition [12] -5.52%

CC(CN(C)C)CN1c2ccccc2CCc2ccccc21 (configuration not stated)
inconclusive: Potency [1] 33.5 µM [rising, single point] | Potency [2] 29.8 µM [rising, single point] | Potency [8] 29.8 µM | Potency [18] 12 µM [activator, partial curve]
active: Potency [4] 26.6 µM | Potency [5] 29.8 µM | Potency [14] 21.1 µM | Potency [9] 16.8 µM
